Test results published in the supplement of paper PMC12217912.
This is one part of the list. Sequences were assembled here from the parent chain. Inactive controls read about 0.05.

B1: TEV protease; numbered along this chain (parent)
chain: MGESLFKGPRDYNPISSSICHLTNESDGHTTSLYGIGFGPFIITNKHLFRRNNGTLVVQSLHGVFKVKDTTTLQQHLVDGRDMIIIRMPKDFPPFPQKLKFREPQREERICLVTTNFQTKSMSSMVSDTSCTFPSGDGIFWKHWIQTKDGQCGSPLVSTRDGFIVGIHSASNFTNTNNYFTSVPKNFMELLTNQEAQQWVSGWRLNADSVLWGGHKVFMVKPEEPFQPVKEATQL

Variants of: B1
Assay: raw area under fraction-flipped curve 0-4 h after induction (AUC4h, not background-subtracted), DNA-recorder readout of cleavage of the substrate (dimensionless); higher = more cleavage of the substrate by the protease variant
Settings: temperature: 34 °C; time window: 0-4 h after rhamnose induction
Description: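 In vivo DNA recorder in E. coli TOP10(DE3) ΔrhaA at 34 °C. Each TEVp single-site mutant (parent TEVp 0) is paired with a single-site variant of the 7-mer TEVs (canonical ENLYFQ|S). The substrate sits between flexible linkers in a Bxb1-sfGFP-TEVs-SsrA fusion, so cleavage stabilises Bxb1 and speeds flipping of a recombination array, read by NGS. The value is the raw area under the fraction-flipped curve over 0-4 h after rhamnose induction (AUC4h), with ≥20 reads per time point. It is not background-subtracted; inactive controls average about 0.047.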
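Note: Bxb1 expression induced with 0.2% (w/v) L-rhamnose at OD600 near 0.5, cultures sampled hourly, flipped fraction per protease–substrate barcode pair counted by paired-end Illumina sequencing.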

| Variant | area with substrate ENLAFQS | area with substrate ENLCFQS | area with substrate ENLDFQS | area with substrate ENLEFQS | area with substrate ENLFFQS | area with substrate ENLHFQS | area with substrate ENLIFQS | area with substrate ENLKFQS | area with substrate ENLMFQS | area with substrate ENLNFQS | area with substrate ENLPFQS | area with substrate ENLRFQS | area with substrate ENLSFQS | area with substrate ENLVFQS | area with substrate ENLTFQS | area with substrate ENLWFQS | area with substrate ENLQFQS | area with substrate ENLGFQS | area with substrate ENLLFQS |
| --- | --- | --- | --- | --- | --- | --- | --- | --- | --- | --- | --- | --- | --- | --- | --- | --- | --- | --- | --- |
| H168E | 0.0565 | 0.069 | 0.0582 | 0.0678 | 0.0566 | 0.0641 | 0.0809 | 0.0548 | 0.0745 | 0.0628 | 0.0577 | 0.0647 | 0.0836 | 0.0559 |  |  |  |  |  |
| H168F | 0.0482 |  | 0.0506 | 0.0689 | 0.0601 | 0.0611 |  | 0.0574 |  | 0.0472 | 0.0644 |  |  |  | 0.0527 | 0.0635 |  |  |  |
| M88Q | 0.0202 |  | 0.0549 | 0.0661 | 0.0942 |  | 0.0848 | 0.0504 | 0.0756 |  | 0.0442 |  |  |  |  | 0.0541 |  |  |  |
| M88D | 0.0431 | 0.024 | 0.0515 |  |  |  |  | 0.0551 |  | 0.0498 | 0.0398 |  |  |  |  |  | 0.0161 |  |  |
| M88Y | 0.0282 | 0.063 | 0.045 |  | 0.0923 | 0.0639 |  | 0.079 | 0.0478 | 0.0204 |  |  |  |  |  | 0.0517 |  | 0.0405 | 0.0198 |
| N13W | 0.0892 | 0.0702 | 0.0652 | 0.1 | 0.0803 | 0.0681 | 0.0761 | 0.0849 | 0.0647 | 0.0755 |  | 0.0797 | 0.0565 | 0.0787 | 0.0689 |  | 0.0645 | 0.0781 | 0.09 |
| P40L | 0.0621 |  | 0.0587 | 0.0719 | 0.0798 | 0.0654 |  | 0.0637 |  | 0.0564 | 0.0788 | 0.0743 | 0.0574 |  | 0.0689 | 0.0683 | 0.0735 | 0.0641 | 0.0799 |
| P40G | 0.0889 | 0.076 | 0.0498 | 0.0778 | 0.0907 | 0.0759 | 0.0868 | 0.076 | 0.0704 | 0.0694 |  | 0.0571 | 0.0618 |  | 0.0842 | 0.0593 | 0.0755 |  | 0.128 |
| P40R | 0.0571 | 0.0731 | 0.0803 |  | 0.0795 | 0.0662 | 0.0865 | 0.0891 | 0.0731 |  | 0.0702 |  | 0.0696 |  | 0.0672 | 0.102 |  | 0.0858 | 0.0796 |
| P40T | 0.0609 |  | 0.0564 | 0.0545 | 0.094 | 0.0681 | 0.0871 | 0.0806 | 0.0874 | 0.0701 | 0.0651 | 0.0619 | 0.0703 | 0.0854 |  | 0.0759 | 0.0719 | 0.0595 | 0.0988 |
| R204H | 0.0725 | 0.0682 | 0.0653 | 0.161 | 0.0837 | 0.0854 | 0.0784 | 0.0836 | 0.07 | 0.0752 | 0.0558 |  | 0.0728 |  |  |  | 0.087 | 0.0683 | 0.0752 |
| D128R | 0.0566 | 0.098 | 0.0507 | 0.0594 | 0.0839 |  | 0.112 |  | 0.0814 | 0.0784 | 0.042 |  |  |  |  |  | 0.13 |  | 0.0814 |
| D128N | 0.0668 | 0.0729 | 0.054 | 0.0514 | 0.0979 | 0.0601 | 0.111 |  |  | 0.021 | 0.0613 | 0.0794 |  |  |  | 0.0695 |  |  |  |
| D128W | 0.197 |  | 0.0682 |  | 0.156 | 0.112 |  |  |  | 0.188 | 0.055 | 0.115 | 0.0887 |  |  |  |  |  | 0.0583 |
| D128Y | 0.0847 | 0.0885 |  |  | 0.109 | 0.0758 |  | 0.11 |  | 0.0763 | 0.0665 |  | 0.0702 |  | 0.0795 |  |  |  | 0.105 |
| K216H | 0.0609 | 0.0716 | 0.0481 | 0.0638 | 0.103 | 0.0663 |  | 0.0757 | 0.0753 | 0.0479 | 0.0559 | 0.0621 | 0.0623 |  |  | 0.0747 |  | 0.0562 | 0.0728 |
| L33N | 0.066 |  | 0.0733 | 0.0679 | 0.0755 | 0.0657 | 0.0798 | 0.0683 |  | 0.0608 | 0.0655 | 0.0736 | 0.0825 | 0.0888 |  | 0.07 |  |  | 0.0628 |
| W144C | 0.0556 | 0.074 | 0.0735 | 0.069 | 0.0681 | 0.0744 | 0.133 | 0.0675 |  | 0.0625 | 0.0534 | 0.0906 | 0.0814 |  | 0.0903 | 0.063 | 0.0757 | 0.0619 | 0.0855 |
| W144M | 0.0834 | 0.0716 |  | 0.0626 | 0.0721 | 0.0676 | 0.067 | 0.0751 |  | 0.0727 | 0.0615 | 0.0668 | 0.0597 |  |  |  | 0.0691 |  |  |
| W144S | 0.0533 | 0.0707 | 0.0616 | 0.0637 | 0.0869 | 0.0572 | 0.0759 | 0.0636 |  | 0.0658 | 0.0624 | 0.0838 | 0.0656 | 0.0789 | 0.0415 | 0.0628 | 0.0573 | 0.0714 |  |
| G8D | 0.0719 |  |  |  |  | 0.0648 |  | 0.0771 |  | 0.0373 | 0.055 | 0.0678 |  | 0.0777 |  |  |  |  |  |
| C152G | 0.0547 |  | 0.0699 | 0.0523 | 0.0916 | 0.0641 | 0.0514 | 0.0679 | 0.0605 | 0.0617 | 0.0605 | 0.0793 |  |  | 0.0573 | 0.0359 |  | 0.058 | 0.0694 |
| C152E | 0.0598 | 0.0566 | 0.0685 | 0.0781 | 0.0632 | 0.0558 | 0.0383 | 0.0611 | 0.0565 | 0.0613 | 0.0632 | 0.0647 | 0.0504 | 0.0492 |  | 0.0651 | 0.0655 |  | 0.0611 |
| C152L | 0.0516 | 0.0561 | 0.0611 | 0.083 | 0.0579 | 0.0617 | 0.0566 | 0.0711 | 0.0611 | 0.0609 |  | 0.0609 | 0.0525 | 0.0689 | 0.0792 | 0.0601 | 0.0566 | 0.0567 | 0.0557 |
| C152V | 0.0515 | 0.0664 | 0.0669 | 0.0728 | 0.0616 | 0.0709 | 0.0617 | 0.0542 |  | 0.0716 |  | 0.0559 | 0.0571 | 0.0597 | 0.0588 | 0.0611 |  | 0.0704 | 0.032 |
| V64R | 0.0748 |  | 0.0623 |  |  | 0.0689 | 0.0967 | 0.0463 |  | 0.0581 | 0.0259 |  | 0.0666 |  | 0.0999 |  |  |  |  |
